Data as given in publication PMC4336329 (PLoS ONE, 2015).
In all, about 310,000 compounds went through this assay and about 14,000 (4.5%) showed an effect of 50% or more. The effect is printed as a negative number. This is one part of the list.

Biological target: human ether-à-go-go-related gene (hERG) potassium channel (human, UniProt Q12809)
Test: primary screen, population patch clamp on CHO cells stably expressing hERG
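Also: peak tail current of the secondary pulse compared with the same well before compound.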

Sequence of human ether-à-go-go-related gene (hERG) potassium channel (Q12809 whole entry, looked up): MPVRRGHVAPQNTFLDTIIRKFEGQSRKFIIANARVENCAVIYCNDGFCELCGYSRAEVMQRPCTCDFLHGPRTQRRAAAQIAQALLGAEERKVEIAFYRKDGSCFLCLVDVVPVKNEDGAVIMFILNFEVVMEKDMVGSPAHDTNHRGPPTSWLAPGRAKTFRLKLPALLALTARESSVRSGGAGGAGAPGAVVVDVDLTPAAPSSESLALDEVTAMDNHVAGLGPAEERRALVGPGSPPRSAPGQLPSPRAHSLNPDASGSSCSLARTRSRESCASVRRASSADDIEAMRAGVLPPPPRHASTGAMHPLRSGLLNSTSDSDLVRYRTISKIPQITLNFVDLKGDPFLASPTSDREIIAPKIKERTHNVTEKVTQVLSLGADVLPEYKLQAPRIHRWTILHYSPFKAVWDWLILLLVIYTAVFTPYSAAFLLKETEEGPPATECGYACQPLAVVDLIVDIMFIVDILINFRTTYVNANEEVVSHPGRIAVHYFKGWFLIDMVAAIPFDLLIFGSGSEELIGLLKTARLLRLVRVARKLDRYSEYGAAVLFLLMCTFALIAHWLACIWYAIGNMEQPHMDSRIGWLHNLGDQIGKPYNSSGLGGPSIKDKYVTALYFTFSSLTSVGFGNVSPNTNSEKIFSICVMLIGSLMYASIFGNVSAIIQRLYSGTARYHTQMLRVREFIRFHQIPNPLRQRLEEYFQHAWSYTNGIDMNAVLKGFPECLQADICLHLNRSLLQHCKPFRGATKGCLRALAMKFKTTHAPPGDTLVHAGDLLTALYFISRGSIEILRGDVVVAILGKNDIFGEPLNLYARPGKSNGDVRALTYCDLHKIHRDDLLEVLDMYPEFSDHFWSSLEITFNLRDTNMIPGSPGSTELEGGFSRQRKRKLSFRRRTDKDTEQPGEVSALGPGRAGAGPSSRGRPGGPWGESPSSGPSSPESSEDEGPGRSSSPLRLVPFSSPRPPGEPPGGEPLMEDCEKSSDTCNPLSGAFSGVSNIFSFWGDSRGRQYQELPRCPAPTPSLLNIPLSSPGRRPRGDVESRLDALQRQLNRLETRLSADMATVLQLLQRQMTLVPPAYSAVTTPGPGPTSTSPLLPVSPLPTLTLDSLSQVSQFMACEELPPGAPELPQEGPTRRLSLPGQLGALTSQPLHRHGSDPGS

| Structure (SMILES) | hERG current change (%, negative = inhibition) at 10uM |
| --- | --- |
| Cl.OCCNc1nc(NCc2ccccc2)c2ccccc2n1 | -54.6% |
| Cc1nn(C)cc1/C=C(/C#N)C(N)=O | 9.11% |
| O=C(Nc1ccc(N2CCOCC2)cc1)c1ccc(Cl)c(S(=O)(=O)N2CCCCC2)c1 | 13.2% |
| COc1ccc2c(c1)c1nc3ccccc3nc1n2CCCN1C(=O)c2ccccc2C1=O | 9.7% |
| Cc1cccc(N2C(=O)N3[C@H](c4ccc(Cl)cc4)[C@@H]4C(=O)N(C5CCCCC5)C(=O)[C@@H]4[C@]3(Cc3ccc(Cl)cc3)C2=O)c1 | 10.3% |
| CC(C)CCNC(=O)Cc1ccccc1[N+](=O)[O-] | -2.16% |
| O=C(NNC(=S)NC(=O)c1cccc([N+](=O)[O-])c1)c1ccc(O)cc1 | 22% |
| Cc1cc2nc(SCC(=O)Nc3nonc3C)c3c(c2cc1C)CCCC3 | -3.87% |
| CCN(CC)S(=O)(=O)c1ccc2c(c1)C(=NO)c1cc(S(=O)(=O)N(CC)CC)ccc1-2 | -2.31% |
| C#Cc1ccc2c(c1)COc1c3ccccc3nn1-2 | 5.92% |
| CCCn1c(=O)c2ccccc2n2c(SCC(=O)N3CCc4ccccc4C3)nnc12 | -23.6% |
| COc1ccc(OCCn2cnc3ccccc32)cc1 | 0.789% |
| COc1c(C)cc(C(=O)C2CCCN(C3CCOCC3)C2)cc1C (stereo not drawn) | -15.2% |
| O=C(NCc1ccc(Cl)cc1)c1cccc(S(=O)(=O)N2CCCC2)c1 | -30.9% |
| O=c1c2oc3ccccc3c2ncn1Cc1ccc(Cl)cc1 | 11.7% |
| Cc1cccc(C(=O)NCCc2nnc(SCC(=O)Nc3nc(C)cs3)n2C)c1 | -21.9% |
| Cc1ccc(C(=O)N(CC(C)C)c2c(N)n(Cc3ccccc3)c(=O)[nH]c2=O)o1 | 9.97% |
| CC1(C)C2CCC1(CS(=O)(=O)N1CCC(C(N)=O)CC1)C(=O)C2 (stereo not drawn) | 9.59% |
| CCCCCC(/C=N/Nc1ccc(S(=O)(=O)N2CCOCC2)cc1[N+](=O)[O-])=C\c1ccccc1 | -3.85% |
| COC/C=C/C1=CC2=CC(=O)C(C)(OC(=O)c3cnc4ccccc4n3)C(=O)C2=CN1CCCOC(C)C (stereo not drawn) | 1.69% |
| O=C(COC(=O)c1c2c(nc3ccccc13)CCCCC2)c1ccc(Cl)s1 | -0.503% |
| Cc1cc(C)c2c(c1)SC1=NC(c3ccccc3)(C(F)(F)F)NC(=O)N12 (stereo not drawn) | 14.8% |
| Cc1ccc(C)c(Cc2c(C)nc3c(C(=O)NCc4ccc5c(c4)OCO5)cnn3c2C)c1 | 9.3% |
| CCCOC(=O)Cc1n[nH]c(=O)[nH]c1=O | 12.5% |
| CCOc1cc(Br)c(C(=O)O)cc1OCC | 9.19% |
| CNc1nnc(CSc2nc(C)cc(C)n2)s1 | 8.93% |
| CC(=O)Nc1cccc(NC(=O)CSc2nc3c(=O)n(C)c(=O)n(C)c3n2C)c1 | 4.47% |

| Structure (SMILES) | hERG current change (%, negative = inhibition) at 10uM |
| --- | --- |
| CCn1cc(Cl)c(C(=O)N2N=C3/C(=C/c4cccs4)CCCC3C2c2cccs2)n1 (stereo not drawn) | -5.66% |
| COc1ccc(OC)c(N2C(=O)[C@@H]3C(c4ccccc4Cl)=NO[C@@H]3C2=O)c1 | 7% |
| CCn1nc(C(=O)NNC(=O)c2ccccc2OCc2c(C)noc2C)c2ccccc2c1=O | -20.8% |
| CCOC(=O)CC1(NC(=O)c2cc(COc3c(F)cccc3F)on2)CCCCC1 | -1.38% |
| Clc1ccc(CSc2ncccn2)cc1 | 3.57% |
| COc1ccc(NCc2nnc(SCC(=O)c3ccc(OC)cc3)n2C)cc1 | 0.995% |
| COc1ccc(CCNC(=O)C2CCCN(c3ncnc4c3nc3n4CCCCC3)C2)c(OC)c1 (stereo not drawn) | -42.8% |
| Cc1ccc(Cn2nnnc2CN2CCC(c3nc4ccc(Cl)cc4[nH]3)CC2)cc1 | 5.01% |
| COCC[N+]1(C)CCCCC1.[I-] | 21.5% |
| Cn1c(=O)c2c(ncn2CC(=O)Nc2nc3ccc(F)cc3s2)n(C)c1=O | -15.6% |
| CC(C)c1ccc(C2NC(=S)NC3=C2C(=O)CC(C)(C)C3)cc1 (stereo not drawn) | 0.27% |
| COc1ccc(-c2n[nH]c(=S)n2/N=C/C=C/c2ccccc2OC)cc1 | 1.37% |
| CC(O)c1nc2ccccc2n1CC(=O)Nc1ccc(F)cc1Cl (stereo not drawn) | 14.2% |
| CCOc1ccc(S(=O)(=O)N(C)c2ccc(OCC(=O)Nc3ccc4[nH]c(=O)[nH]c4c3)cc2)cc1 | 19.1% |
| COC(=O)C1(S(=O)(=O)c2cccc3nsnc23)CC1 | 9.65% |
| COC(=O)c1cc(Cc2ccc(N)c(C(=O)OC)c2)ccc1N | 11.5% |
| CCC(C)N(CC(=O)Nc1cccc(C)c1C)C(=O)CCl (stereo not drawn) | 10.6% |
| Cc1ccc(NC(=O)N(Cc2nc3ccccc3c(=O)[nH]2)Cc2cccs2)cc1 | -23.7% |
| CCCCCC1C/C(=N\O)C=C(C)C1C(=O)OC (stereo not drawn) | -3.03% |
| COC(=O)CNC(=O)C1CCN(S(=O)(=O)c2cnc[nH]2)CC1 | -1.84% |
| Cc1ccc(NC(=O)c2cccs2)cc1S(=O)(=O)Nc1cccc(Cl)c1 | 8.25% |
| Cc1cc(Cn2ccnc2)c(C)c([N+](=O)[O-])c1Cn1ccnc1 | -7.19% |
| CC(C)(C)OC(=O)N1CSC[C@H]1C(=O)NC[C@H](CC(=O)O)c1ccc(Cl)cc1 | 17.6% |
| Cc1ccc(S(=O)(=O)c2nnn3c2nc(N2CCC(C(N)=O)CC2)c2ccccc23)cc1C | -33.7% |
| NC(=O)CSc1ncnc2c1cnn2Cc1ccccc1 | 10.8% |
| O=C1/C(=C/c2ccccc2)SC(=S)N1N1C(=O)C2CC2C1=O (stereo not drawn) | -1.95% |
| COC(=O)c1cc2c(s1)-c1ccc(OC)cc1CC2 | 21.4% |
